Among all 110,000 compounds or so, about 230 (0.21%) showed an effect of 50% or more. Some of the results follow.
Each compound was assayed against DPAP1 (Plasmodium falciparum, UniProt Q8IIJ9) (assay: primary screen, percent inhibition; read by cleavage of a fluorogenic dipeptide substrate; higher = more effect of the substance).
Parameters: species or system P. falciparum D10 trophozoite lysates; single well
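Note: 30 min substrate incubation versus DMSO and 10 µM JCP410 controls.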

Sequence of DPAP1 (Q8IIJ9 whole entry, looked up): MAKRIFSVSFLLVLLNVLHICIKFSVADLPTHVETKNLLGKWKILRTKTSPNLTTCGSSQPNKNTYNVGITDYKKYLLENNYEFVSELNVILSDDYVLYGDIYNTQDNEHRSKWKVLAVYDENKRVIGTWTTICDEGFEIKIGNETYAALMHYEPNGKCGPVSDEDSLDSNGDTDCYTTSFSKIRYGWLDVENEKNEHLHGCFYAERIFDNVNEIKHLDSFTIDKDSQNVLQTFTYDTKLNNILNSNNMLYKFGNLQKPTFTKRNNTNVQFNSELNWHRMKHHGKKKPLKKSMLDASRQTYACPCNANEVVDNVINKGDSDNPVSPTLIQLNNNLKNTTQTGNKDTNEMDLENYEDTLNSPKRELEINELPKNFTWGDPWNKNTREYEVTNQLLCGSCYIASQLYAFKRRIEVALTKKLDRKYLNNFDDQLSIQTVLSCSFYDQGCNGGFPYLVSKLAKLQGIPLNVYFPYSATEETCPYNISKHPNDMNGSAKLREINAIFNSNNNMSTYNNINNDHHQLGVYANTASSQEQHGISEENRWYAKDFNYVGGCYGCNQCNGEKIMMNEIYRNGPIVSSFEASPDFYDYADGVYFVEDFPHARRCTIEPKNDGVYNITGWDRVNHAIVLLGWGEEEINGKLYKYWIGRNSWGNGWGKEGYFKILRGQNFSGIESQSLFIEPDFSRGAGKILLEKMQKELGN

SMILES | % Inhibition @ 10 uM [%]
Oc1c2c(nc3c(-c4ccccc4)c(Cc4ccccc4)nn13)CCC2 | -3.44
CCOC(=O)CP(=O)(CC)OCC (stereo not shown) | -0.274
Cc1cc(C)n2nc(Cc3ccccc3)c(-c3ccc(Cl)cc3)c2n1 | 1.27
O=C(COc1ccccc1F)Nc1ccc2c(c1)CCC2 | -15.9
O=C1c2cccc3cccc(c23)C(=O)N1CCC(=O)N1CCCc2ccccc21 | -2.8
Cc1[nH]c2ccccc2c1CCNC(=S)NC(C)(C)C | -0.431
O=C(Nc1ccon1)c1ccc(S(=O)(=O)N2CCCC2)cc1 | 0.316
O=C(O)CCN1C(=O)NC2NC(=O)NC21 (stereo not shown) | -1.93
Cc1nn(C)cc1CNC(=O)c1cc2nc(-c3ccc(Cl)s3)cc(C(F)(F)F)n2n1 | -2.77
Cc1cc(C)c(Cn2c3ccccc3c3cnn(CC(=O)O)c(=O)c32)c(C)c1 | 4.79
Cc1nn(CC(=O)N2CCN(C)CC2)c(=O)c2nn(-c3ccccc3)c(C)c12 | 5.46
CCCn1c2ccccc2c2cnn(CC(=O)N3CCC(c4ccccc4)C3)c(=O)c21 (stereo not shown) | 2.82
Cc1sc(NC(=O)/C=C/c2ccco2)c(C(=O)O)c1C | 1.26
CCN(CC)c1ncnc2c1cnn2C | 1.42
C#CCOc1ccc(/C=C2/NC(=O)N(CC(=O)Nc3cccc(C)c3)C2=O)cc1 | -8.01
Cc1ccccc1CN1CCN(c2ccccc2Cl)CC1 | -0.192
CCOc1ccc(C2CC(c3ccc(CC)cc3)Nc3nnnn32)cc1OC (stereo not shown) | -3.37
Cc1cccc(C(=O)Nc2cc(Cl)ccc2Cl)c1 | -0.197
CCN1CCN(CCCNC(=O)Cn2c(=O)c3cccn3c3cccnc32)CC1 | 1.8
CCN(CC)C(=O)Sc1nc2ccccc2s1 | -2.39
CCN(CC)C(=O)c1sc2c(c1C)c(=O)n(Cc1ccccc1)c(=O)n2CC(=O)C(C)(C)C | 3.52
CC1=C(C(=O)OCc2ccc(C)cc2)C(c2c(F)cccc2Cl)CC(=O)N1 (stereo not shown) | -2.87
NC(=O)/C=C/C(=O)Nc1ccccc1 | -3.13
O=C(O)Cn1c(-c2ccccc2)nc2ccccc21 | 7.56
N#CC1(NC(=O)[C@H](Cc2c(F)cccc2F)NC(=O)c2ccc(-c3ccccc3Cl)c(Cl)c2)CCN(CC(F)(F)F)CC1 | -0.207
Cc1cc2nc(-c3ccccc3)c(=O)n(C)c2cc1C | 3.53
Cc1onc(-c2ccccc2)c1C(=O)N1CCC(Cc2ccccc2)CC1 | -4.59
Cc1cc(NC(=O)COCc2cc(-c3cccs3)on2)no1 | -1.04
